Measured values taken from the supplement of paper PMC12632987.
The full ranking holds about 4,500 sequences; the median of “median log2 fold change of GCK-ALFA target abundance (FLAG IP / Myc IP barcode read proportion)” is about 0.078, and the lowest 2% start at about -0.6. The list shows a part of the results.

B1: GBRAP_128_3347 (protein)
chain: IDKEKVEEAEKLIKEMLTADKEEAKKLADELMEKLLTMSLEEVKEVVKIAKKLLPKYTAEQLDILADALREHRPLFTPEKAEEVNDLEVEALNEAEEKEE
B2: GBRAP_117_2581 (protein)
chain: EEERERVKEELRETVRRAGEELKAAESLSPEERERVEREVRERIREAVRRALEVLSEDEVLDIVEEELLKFDAETYFRVSLFVEEAIEEIRREREEEERR
B3: GBRAP_14_3806 (protein)
chain: MEERKKVVEEGVEETIEIVKEILADAPEEVREAVVKLIEEARDKIIEENLNPDEVAELTDELVAEVKKIMADLPEEVRAQVVAAIETGFGEIILEIEELE
B4: GBRAP_52_5951 (protein)
chain: ALEEALALLREALAAVLAGDEERARAILRELVAEFDLETIRAAAVALAKSLAGADDATLEAAVRLFDMLEDELIEAGVDEEEAELIRGDALAALAKAHAA
B5: GBRAP_80_6807 (protein)
chain: AEKRLEEALKKIEEVDPELAKKAKEIVELARKMGVSEETLAEFAEALAKLAEVDVEKAKELLEETKEDLEEEEKEGNTANAEAVLRVYAGEFLLEVEELE
B6: GBRAP_78_6637 (protein)
chain: EIEEKLEEALELVDEAAKLALELPEDLRNEILAELVDAASYIEEAIEEGGDLEEIKEAIEELEEALELLEAENRPELEPLREKVKEALEIAKKVEKEVKK
B7: GBRAP_184_5283 (protein)
chain: TVRHVEIEAETAAEAIAALEAAAAEARAAGARLDVTLLLRDADVAGALALFDLLKALRDEGIIRSATVGLEREVSDEELDTLLAAADAAGVRLVVAIPDE
B8: GBRAP_83_6906 (protein)
chain: MSVVAVNLTPENGEARVAEAVDIVVEEGWDLEILVGTDPAEVDAAVALFDRLNASGKKVRVEVVVVGRDEAAVRAAAARIRAAVAAQPNVELEELVEEVL
B9: GBRAP_137_3650 (protein)
chain: MKVVIELEEIDGLGVLTIKVYDPEKAEEIEELVLDIADKNKVYAVSIEREEDGTLVITVEGEIEVIEKFLKELVKELEEKYGLKAKEEEVDGKKVITLEK
B10: GBRAP_95_7080 (protein)
chain: DDDLEEVEILASTAIDLYEAGLKEAAAKAFRAALDELKELGYKVKDKELAIELLRYFADLALEHFTLEEVEEAIEAAKKIGAPEELIKRLEEKAEELKKR
B11: GBRAP_26_5467 (protein)
chain: MDAAFAAARDRIDAIAAKLPDPRAAAALRALADTELLELEERIEAGEDIDAAVDAARDAFLAEAREILEDAGLPEELIAKTLAEFEAVFDDLRAALKAAQ
B12: GBRAP_160_4733 (protein)
chain: EERIKELVEEALELFLEAVDDTEDLSKEEALAVYEGAAGESLMDFIEDPFVSDEMEDTAAEMLDELVEELKANYDASVEEKKEIVKEKMEELLEKLLKLS
B13: GBRAP_52_6220 (protein)
chain: SAEEAKKLAKEIVETVKKEGVEAAVKLLKEIAKKNSPELVTAVLDEIVELAKEESLEVAEKLLEALLKAEDDLIAAGVSEADVSDAIAGLAAVAVELEKK
B14: GBRAP_52_6171 (protein)
chain: SAEKARKMAEELLEAIKAGDEEKVKKILEEIAKNYTDEEIAAMLREVAKRVPSLSPEDQERVVEAALELEDIAVKAGHDENVLQIEVARVAAAAYDALQA
B15: GBRAP_166_4937 (protein)
chain: SVEEALERLRKLIKEALERMKTANAEERTELWIEVGEALREAREAGVSREEILEAVREFLEGVKELGWNIRIAAGIIINEADFTEEEIDEVWAIVDEILA
B16: GBRAP_128_3276 (protein)
chain: MNEEVVEKALEFVERLKEADEEEAREIAEEFAEWLGSISTEEAEQAVDVIIERLGELSAEQLEILADVLREHRGKFDPEKANLVADLQVEALNEAVEKEE
B17: GBRAP_52_6355 (protein)
chain: MRERMRKIVEEMVKLKKEGKEEELKELAKEVVKTLSPEELRLLFDELARLALESDKETAEALFEVAEVLEDEMLEAGRDEFEASALLSRVGKAVYENLQK
B18: GBRAP_35_5518 (protein)
chain: STSETETEMLVATIEDLVLAVADMPVEQAAAIANKLIDDALKLAKENKDDLEALKKIKKALEKLLAAIKKNYPDSPLAKETAEKIEKAIKEIEKLIKEAK
B19: GBRAP_166_4909 (protein)
chain: SNEEKIKKLKEEAEKLIKELKEANEEEALELIIEFGEVLEELKKLGASEEEILELVRKLLEAVKEKGFSVKVAAGIIANVADFDEEEIEKLDKIAEEVEK
B20: GBRAP_160_3969 (protein)
chain: SEEVEKLLKEIDEIFEEAKEMIVGESFENRLTIVRVAVGEVLLLLSENPLVSDEAEDKVDEIGDELIATIEANPDLTEEEIKELIDKAEEEIKKIIKEDA
B21: GBRAP_39_5709 (protein)
chain: DEEEELELLAEYYAADAAKAQVESGVSLEDFLAAQRKEIEEEAKTNPESKEVYERLLELMDEGDEVDALIAAGIAAALKAGMPVEEAQAILDEVERERKE
B22: GBRAP_35_5550 (protein)
chain: SDEETIVEMLRNTAEDLLLAVDTMPIDTLFTVTTQIAELVLEALREERSNKEGMRELGRAMIAALDAAIARAKAEGAPQEKIDELERLRKEVEEALKELE
B23: GBRAP_117_2602 (protein)
chain: MSKLEKAKELAKKLVELIRKSLEESKKLTPEERKELEKKTLEEVTKLVKEMLKLVDVDTLEELFAEATEDLTPEERVKAYILYEEALAEALDERKKEEEE
B24: GBRAP_160_4784 (protein)
chain: MERVEKVAKRFREAAKRALELSKGETAENRANIVDVELGSAILELEEEGLLNDEEEEVAAEVRDELVAEILANPNLTDEELKALLEKAVEELRKRLEELE
B25: GBRAP_48_5834 (protein)
chain: MPFDEEKLEKLVKETVEEMKEVYEEAKAEGLSREEILKMVRALLGDLALELEEAGYTKAADYLLDPENREKVATTLVELFDEGKYEEAKKYLLDTLKKVE
B26: GBRAP_184_5245 (protein)
chain: MVIDVEVTVSTKEEAIEKLKEVEEEAKKKGAKVDLIVTLTNATKELVETTMKLIKELKEKGLLNSVEVVIDNYEDEETLELAFDLAHEVGVDALAYDEKE
B27: GBRAP_184_5253 (protein)
chain: AVLERTIEAENVEELKAQMAKIGAEALATGADLIITLKAKEVTKEMIKALFDAIAALKAAGYTGRVTVGIDADLSEEMIDFAIEQADKAGVNLVLALPEE
B28: GBRAP_184_5076 (protein)
chain: AVLEETLRVEDLEEARARLAALRERVADFRGTLVVLVEMPEFERETARAVLEGLAAMKAAGYVTDVTVGFDAPLTEEQVDFVVDTADALGVKVTLALPEE
B29: GBRAP_83_6984 (protein)
chain: AEEIVVAAPADRAAEAVEIAEDLSKEEGYDVTLEILVRADQLDKALAAVEEAIAKLDGIEIVLALEGATPEQAAALQARANAAAAAAGSNSTITVVLEEP

The binders below were run against GABARAP, O95166 (assay: median log2 fold change of GCK-ALFA target abundance (FLAG IP / Myc IP barcode read proportion) (log2 ratio); each designed protein is fused to an ALFA-tag nanobody in HEK293 cells to bring the named protein to FLAG-tagged glucokinase (GCK); Myc marks an untargeted standard; higher = target protein stabilised (more abundant)). Settings: target protein: 3xFLAG-MCP-GCK-ALFA reporter; HEK293 landing pad (RPLP).
GABARAP, O95166, sequence (O95166 whole entry, the tested form may be a part): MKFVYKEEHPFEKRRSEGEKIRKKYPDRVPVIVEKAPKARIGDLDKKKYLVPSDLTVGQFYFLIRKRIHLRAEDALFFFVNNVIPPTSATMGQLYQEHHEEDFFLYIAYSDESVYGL
Outline: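 Sequencing of reverse-transcribed, amplified circular RNA barcodes from anti-FLAG and anti-Myc immunoprecipitates provided the readout for an ALFA-nanobody-fused binder library recombined into HEK293 landing-pad cells. Those cells were induced with 2 μg mL^−1 doxycycline, transfected with a plasmid expressing a FLAG-tagged target and a Myc-tagged standard, and lysed after 48 h. Target abundance is the per-binder median log2 ratio of FLAG to Myc barcode read proportions. Only barcodes at a proportion of ≥10^−7 in both replicates and binders with ≥3 barcodes per replicate were kept, with a 10^−6 pseudocount added before the two replicates were pooled.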

Row | Binder | median log2 fold change
1 | B1 | 0.388
2 | B2 | 0.266
3 | B3 | 0.0344
4 | B4 | -0.0929
5 | B5 | -0.289
6 | B6 | 0.066
7 | B7 | -0.0718
8 | B8 | -0.148
9 | B9 | 0.447
10 | B10 | 0.264
11 | B11 | 0.199
12 | B12 | -0.474
13 | B13 | 0.267
14 | B14 | -0.631
15 | B15 | 0.252
16 | B16 | -0.0114
17 | B17 | 0.039
18 | B18 | 0.195
19 | B19 | -0.0535
20 | B20 | -0.61
21 | B21 | 0.0701
22 | B22 | -0.103
23 | B23 | 0.278
24 | B24 | 0.242
25 | B25 | 0.225
26 | B26 | 0.088
27 | B27 | 0.0779
28 | B28 | 0.0481
29 | B29 | 0.108
